Source: ChEMBL document CHEMBL4888484, “Replenishing the malaria drug discovery pipeline: Screening and hit evaluation of the MMV Hit Generation Library 1 (HGL1) against asexual blood stage Plasmodium falciparum ,using a nano luciferase reporter read-out” (2022)
Values joined by “and” are separate entries in the source; they are usually repeats but may differ in a detail not shown here. Equal values may be shown once. The whole screen tested about 150,000 compounds, of which about 540 (0.36%) showed an effect of 50% or more. Some of the results follow.

Tested on: Plasmodium falciparum
Experiment: Primary screen in NF54 nanoGlo assay, in single point, at 2uM, 72h; a lower Z score goes with more inhibition
Assay type: functional, Erythrocyte
Conditions: timepoint 72 hour

Cn1ncc(Cl)c1C=Cc1ccncn1
% Inhibition: -3% | Z score: 0.32

CC(C)c1ccc(NC(=O)c2nc(CCc3ccccc3)n(-c3ccccc3)n2)cc1
% Inhibition: -19% | Z score: 3.67

Cc1cccnc1CN1C[C@@](C)(c2ccccc2)CCC1=O
% Inhibition: 8% | Z score: -1.19

CC(=O)N1CCN(Cc2cc(C#N)n(C)c2)C[C@H](O)C1
% Inhibition: 5% | Z score: -0.97

O=C1NCCCC[C@@H]1NS(=O)(=O)NCc1ccccc1
% Inhibition: 5% | Z score: -0.64

CC(CNC(=O)N1CCCC(CO)C1)Oc1ccc(Cl)cc1 (configuration not stated)
% Inhibition: -4% | Z score: 0.38

CS(=O)(=O)CCn1cnc(-c2ccccc2)c1-c1cnc2ccccc2c1
% Inhibition: 1% | Z score: -0.27

Cc1ccc(S(=O)(=O)N[C@@H](CC(=O)NC2CCCC2)c2ccco2)cc1
% Inhibition: 19% | Z score: -2.23

Cc1ccc(CCN2C(=O)CC[C@@H]3CN(C(=O)c4ccon4)CC[C@@H]32)o1
% Inhibition: -15% | Z score: 1.3

CCOC(=O)N1CCC(NCc2cnc(C(C)(C)C)nc2)CC1
% Inhibition: -10% | Z score: 0.98

O=C(Cn1nnc(C2CC2)n1)N1CCCc2ccccc21
% Inhibition: -4% | Z score: 0.74

Cc1cc(N2CCN(CCCO)CC2)n2nc(C)cc2n1
% Inhibition: -9% | Z score: 1.98

CC(C)(C)C(=O)N1CC(Nc2ncccn2)C1
% Inhibition: -6% | Z score: 1.02

COc1ccccc1-c1cc(C(=O)NCc2cccc(C(F)(F)F)c2)nc2cc(-c3ccccc3)nn12
% Inhibition: -22% | Z score: 2.41

Cc1nccc(O[C@H]2CCCN(C(=O)c3ccccc3Br)C2)n1
% Inhibition: 2% | Z score: -0.26

C[C@H](C(=O)O)C1CCC(NC(=O)OC(C)(C)C)CC1 (some centres not stated)
% Inhibition: 2% | Z score: -0.33

CCCCS(=O)(=O)Nc1ccc(C)c(N2CC[C@H](N(C)C)C2)c1
% Inhibition: 6% | Z score: -0.69

C[C@H]1C(=O)NCCN1C(=O)CN1C(=O)c2ccccc2C1=O
% Inhibition: -2% | Z score: 0.24

CNC(=O)CN1CCN(C(=O)[C@@H]2CCCC[C@@H]2c2ccccc2)CC1
% Inhibition: 1% | Z score: -0.08

CCN(Cc1ccco1)Cc1c(C)noc1C
% Inhibition: -18% | Z score: 2.57

Cc1ccc(C(=O)O[C@@H](C)c2nc3ccccc3n2C)cn1
% Inhibition: -6% | Z score: 0.69

Cc1ccsc1-c1c(-c2ccccc2)ncn1CCN1CCNC1=O
% Inhibition: 0% | Z score: 0

Cn1c(C(=O)NCCCN2CCCCC2)c(N2CCCC2=O)c2cc(F)ccc21
% Inhibition: 5% | Z score: -0.77

Cn1nc(-c2cnccn2)cc1CNC(=O)c1ccsc1
% Inhibition: 12% | Z score: -1.49

CC(C)(C(=O)NC(CO)C(C)(C)C)C1=NC(C(C)(C)C)CO1 (configuration not stated)
% Inhibition: 3% | Z score: -0.63

Cc1cccc([C@@H](C)C(=O)NCc2ccc(C(=O)O)c(C3CC3)n2)c1
% Inhibition: 11% | Z score: -1.56

C[C@@H](CNC(=O)Nc1nccs1)S(N)(=O)=O
% Inhibition: -1% | Z score: 0.11

O=C(c1cn(CCN2CCOCC2)nn1)N1CCc2sccc2C1
% Inhibition: -4% | Z score: 0.57

CC(C)n1ncc2cc(S(=O)(=O)N[C@H]3CC(=O)N(C)C3=O)ccc21
% Inhibition: -19% | Z score: 1.85

Cc1ccc(NC(=O)CC(=O)N(C)CCN2CCCCCC2)c(C)c1
% Inhibition: 2% | Z score: -0.23

Cc1cc(Cn2ccc(-c3cccc(-c4nccs4)c3)n2)no1
% Inhibition: -7% | Z score: 1

Cc1cnc(C)c(N2CCCN(c3cncc(F)c3)CC2)n1
% Inhibition: 29% | Z score: -4.25

CN1CCc2nc(C=Cc3cccc(Cl)c3Cl)[nH]c(=O)c2C1
% Inhibition: 13% | Z score: -1.2

Cc1c(NCc2cccnc2)cccc1C(=O)N1CCN2CCNC(=O)[C@@H]2C1
% Inhibition: -14% | Z score: 1.4

CC1(C)CCc2nc(CN(CCC#N)CCC#N)sc2C1
% Inhibition: 5% | Z score: -0.62

O=C(NCc1ccc2ccccc2n1)c1cc(CN2CCC(O)CC2)on1
% Inhibition: -8% | Z score: 1.5

CC[C@@H](C(=O)NCc1ccncc1C)n1cccn1
% Inhibition: -1% | Z score: 0.09

Cc1noc(C)c1C(=O)N1CCc2ccccc2C1
% Inhibition: 14% | Z score: -1.27

CN1CCN(C(=O)CCN2CCCc3ccccc3C2)CC1
% Inhibition: 0% | Z score: 0.01

Cc1ccc(C)c(-c2n[nH]cc2CN2CC[C@@H](O)C[C@H]2C(=O)O)c1
% Inhibition: 1% | Z score: -0.15

COc1cc(C(=O)O[C@@H](C)c2ccc(-n3cccn3)cc2)on1
% Inhibition: -16% | Z score: 1.84

Nc1c(Oc2cccc3cccnc23)ncnc1N1CCCCC1
% Inhibition: 6% | Z score: -0.69

O=C(C[C@@H](c1ccc(Cl)c(Cl)c1)N1CCOCC1)N1CCC2(CCC2)C1
% Inhibition: -9% | Z score: 1.26

CC(C)N1CCCN(S(=O)(=O)c2ccc(-c3cc(C(F)(F)F)[nH]n3)o2)CC1
% Inhibition: -9% | Z score: 1.39

Cc1ncc(NC(=O)NC2(c3c(F)cccc3F)CCC2)c(C2CC2)n1
% Inhibition: 16% | Z score: -2.25

CNC[C@H]1CCN(S(=O)(=O)CCCC(F)(F)F)C1
% Inhibition: -30% | Z score: 3.53

O=C(CN(Cc1nccn1C(F)F)C1CC1)Nc1cc(F)ccc1F
% Inhibition: -2% | Z score: 0.28

O=C(NCCOCCn1cccn1)c1cncc(F)c1
% Inhibition: -14% | Z score: 2.09

O=C(O)C1CCC(=O)N(Cc2ccccc2)C1c1ccccc1 (configuration not stated)
% Inhibition: -9% | Z score: 1.72

CC[C@H]1C(=O)NCCCN1C(=O)c1cc(C2CC2)nc2onc(C)c12
% Inhibition: 5% | Z score: -0.67

O=S(=O)(Cc1csc(-c2ccco2)n1)CC1CCOCC1
% Inhibition: -12% | Z score: 1.57

Cn1cc([C@H]2CN(C(=O)CCc3ccccn3)C[C@H]2CC(=O)O)nn1
% Inhibition: 0% | Z score: -0.06

CN(CCCc1cccnc1)CC[C@H]1CCCCO1
% Inhibition: -21% | Z score: 2.05

CC1CCN(C(=O)OC(C)(C)C)C(C)C1NC(=O)CN1CCCS1(=O)=O (configuration not stated)
% Inhibition: -2% | Z score: 0.22

C[C@H]1COc2ccc(C(=O)N3CCOC4(CCC4)C3)cc21
% Inhibition: -9% | Z score: 1.46

CCCN(CC(=O)N1CCn2cccc2[C@H]1c1cccc(F)c1)C(=O)Nc1cccc(C)c1
% Inhibition: -1% | Z score: 0.11

CCCc1cc(N2CCN(c3ncccc3C)CC2)n2nccc2n1
% Inhibition: -15% | Z score: 2.02

C[C@@H](Cc1ccsc1)NC(=O)N(C)CC1CCC1
% Inhibition: -4% | Z score: 0.49

CCN(CC)CCN(CC(C)C)C(=O)c1ccccn1
% Inhibition: -11% | Z score: 1.38

CCc1cccc(S(=O)(=O)Nc2nonc2C)c1
% Inhibition: -9% | Z score: 1.05

Cc1cccc(N2CCN(S(=O)(=O)c3ccc(-c4nnc(C)o4)o3)CC2)c1
% Inhibition: 2% | Z score: -0.32

CS(=O)(=O)N1CCOC[C@H](Oc2ccccc2)C1
% Inhibition: 1% | Z score: -0.17

C[C@H](NS(=O)(=O)c1ccc2c(c1)NC(=O)CO2)c1cccnc1
% Inhibition: 4% | Z score: -0.73

CCOc1cc(C(C2C(=O)N(CC)c3ccccc32)C2C(=O)N(CC)c3ccccc32)cc(Br)c1OCC (configuration not stated)
% Inhibition: 1% | Z score: -0.1

CCc1cc2c(NC3CCCC3)ncnc2s1
% Inhibition: -16% | Z score: 1.49

CS(=O)(=O)CC(=O)N[C@H]1CC[C@@H](C(=O)N2CCCCC2)C1
% Inhibition: 4% | Z score: -0.6

CCc1nc[nH]c1C(=O)N[C@H]1C[C@H](c2ccc(F)cc2F)C1
% Inhibition: -15% | Z score: 2.38

CO[C@H]1CCCN(Cc2cnoc2C)C1
% Inhibition: 6% | Z score: -0.71

O=C(NC1CC1C1CCCCC1)N1CCC[C@@H]1CO (some centres not stated)
% Inhibition: -5% | Z score: 0.8

COc1cc2c(cc1OC)CN(C(=O)c1cc(=O)c(OCc3ccc(Cl)cc3)c[nH]1)CC2
% Inhibition (2 µM): 4% and 10% | Z score (2 µM): -0.8 and -1.11

COc1ccc([C@@H](O)Cn2cnc(C(=O)N3CCN(c4ccccn4)CC3)n2)cc1
% Inhibition: -1% | Z score: 0.11

C=C[C@H]1OCC[C@@H]1NC(=O)c1cnn(CCC)c1
% Inhibition: 2% | Z score: -0.35

COc1ccc(-c2cc(CN(Cc3ccco3)C(=O)NCc3ccccc3)no2)cc1
% Inhibition: -12% | Z score: 1.83

CCCc1cc(CNS(=O)(=O)c2cc(-c3cnc(C)o3)ccc2C)on1
% Inhibition: -1% | Z score: 0.11

CC(C)[C@H](Oc1cccc(Cl)c1)C(=O)NCc1nccc(N)n1
% Inhibition: -8% | Z score: 0.9

Cc1ccccc1CNS(=O)(=O)c1cc(C(=O)N2CCCCCC2)cs1
% Inhibition: 3% | Z score: -0.31

CCN(Cc1ccoc1)C(=O)NCC1(N(C)C)CCCC1
% Inhibition: 2% | Z score: -0.16

Cc1ccc(NC(=O)c2c(NC(=O)c3cccc4ccccc34)sc(C)c2C)cc1
% Inhibition: -17% | Z score: 2.18

Cc1ccc([C@H]2CN(C(=O)c3ccc4cc[nH]c4c3)C[C@@H]2N(C)C)cc1
% Inhibition: -9% | Z score: 0.92

CCNC(=O)c1coc(CN(Cc2cccc(F)c2)Cc2ccc3c(c2)OCO3)n1
% Inhibition: 1% | Z score: -0.11

CNC(=O)c1nnsc1OC(C)(C)CC(C)=O
% Inhibition: -13% | Z score: 1.58

NC(=O)c1ncn(-c2ccncc2)c1N
% Inhibition: 27% | Z score: -3

CC1CC(CN2CCC(NS(=O)(=O)c3cccs3)CC2)CCO1 (configuration not stated)
% Inhibition: -5% | Z score: 0.51

COc1ccc(NCc2c(C)nn(C)c2Oc2cccnc2)c(C)n1
% Inhibition: -14% | Z score: 2.17

Cc1ncsc1-c1cc(-c2ccnn2-c2ccccc2)c(C#N)c(N)n1
% Inhibition: 0% | Z score: 0.03

CCc1cc(N2CCC[C@@]3(CCC(=O)N(CCc4c[nH]cn4)C3)C2)nc(C)n1
% Inhibition: -3% | Z score: 0.47
